Hit rate of the full screen: of about 48,000 compounds, about 450 (0.94%) were called active. Inconclusive results, whose numbers are uncertain, are shown with a selection of clear calls. Calls follow the shape of the dose curve; as a rule, active = well fitted inhibition curve with a large enough effect; inconclusive = small, poorly fitted or top-dose-only effect; inactive = no such curve, though single readings can be large or run the other way. Potencies beside an inconclusive call are fits to weak or partial responses and may not hold up.
Assay: Primary qHTS for Identification of Small Molecule Inhibitors of Huntingtin Promoter Activity; also: nearly all actives have a fitted effect of over 50% in size
Conditions: HEK293 HTT promoter firefly luciferase reporter (activity 0% = vehicle and -100% = no light), 24 h; activity change, negative = inhibition: at 57.5 µM (top of the series)
Summary of the method: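 HEK293 Fluc reporter, 2,500 cells/well, 24 h pre-culture; cpds up to 57.5 uM final, 24 h 37 degrees C; Dual-Glo, 10 min RT; normalized vehicle = 0%, zero RLU = -100%.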
Potency is read from the fitted curve at half-maximal effect; tags tell the direction and shape of the fitted curve.

Potency, inconclusive:
COc1ccc(Cn2c(SCc3ccc(C(=O)NCc4ccc(C)cc4)cc3)nc3cccnc32)cc1 17.8 µM [inhibitor, partial curve, poor fit]
COc1ccccc1N1CCN(C(=O)Cn2ncc3c2-c2cc(C)ccc2OC3)CC1 35.5 µM [inhibitor, single point]
Cc1c(O)cccc1C(=O)N[C@@H](CSc1ccccc1)[C@H](O)CN1C[C@H]2CCCC[C@@H]2C[C@@H]1C(=O)NC(C)(C)C 24.3 µM [inhibitor, partial curve]
CCOc1ccc(C(=O)Nc2ccc3c(c2)CCCN3S(=O)(=O)c2ccc(C)cc2)cc1 6.31 µM [inhibitor, partial curve]
Cc1oc(-c2ccccc2F)nc1Cn1c(SCc2cccc(C(F)(F)F)c2)nc2ccncc21 35.5 µM [inhibitor, single point]
O=C(Nc1ccccc1F)c1cnc(N2CCCCC2)c2ccccc12 22.4 µM [inhibitor, single point]
COc1ccc(N(CC(=O)Nc2cc(OC)cc(OC)c2)S(=O)(=O)c2c(C)noc2C)cc1 31.6 µM [inhibitor, partial curve]
Cc1cc2c(cc1S(=O)(=O)Nc1ccc(C(C)C)cc1)OCCN2C 31.6 µM [inhibitor, partial curve, poor fit]
Cc1ccc(O)c(NC(=O)CCS(=O)(=O)c2nc(-c3cccs3)cc(C(F)(F)F)n2)c1 35.5 µM [inhibitor, single point]
Cc1cccc(-n2cnc3cc(C(=O)NCc4ccccc4Cl)ccc32)c1 39.8 µM [inhibitor, single point]
Cc1ccc(C(C)C)c(OCC(=O)Nc2cc(-c3nc4ccccc4[nH]3)ccc2C)c1 39.8 µM [inhibitor, single point]
COc1ccc(CCNc2ncnc3c2c(-c2ccccc2)cn3-c2ccc(Cl)cc2)cc1OC 39.8 µM [inhibitor, single point]
COc1cccc(-c2nc(CS(=O)(=O)CC(=O)Nc3cccc(C(C)=O)c3)c(C)o2)c1 39.8 µM [inhibitor, single point]
COc1ccc(C)cc1NC(=O)c1cc(S(=O)(=O)N2CCC(C)CC2)ccc1F 7.94 µM [inhibitor, partial curve, poor fit]
CCOc1ccc(CNCc2c(C(=O)O)n(Cc3ccc(C)cc3)c3cc(C)ccc23)cc1 28.2 µM [inhibitor, single point]
Cc1c(Cl)cccc1NC(=O)CN(CCc1ccccc1)S(=O)(=O)c1ccccc1 28.2 µM [inhibitor, partial curve, poor fit]
Cc1cccc(C(=O)N2CCc3cc(CNS(=O)(=O)c4ccc(Cl)s4)ccc32)c1 39.8 µM [inhibitor, single point]
O=C(NCc1ccccc1)c1ccc(CSc2nc3cccnc3n2Cc2cccc(F)c2)cc1 39.8 µM [inhibitor, single point]
CCCCn1nc(NC(=O)c2cccc(Cl)c2)c2cc3ccccc3nc21 39.8 µM [inhibitor, single point]
CCOc1ccccc1C(=O)Nc1c(C(=O)Nc2ccc(F)cc2)oc2ccccc12 20 µM [inhibitor, partial curve]
CCOc1ccc(C2Nc3c(C)cccc3-c3cc(C)nn32)cc1 (stereo not drawn) 39.8 µM [inhibitor, partial curve, poor fit]
COc1ccc(S(=O)(=O)NCC(c2ccco2)S(=O)(=O)c2cccs2)cc1C (stereo not drawn) 35.5 µM [inhibitor, single point]
O=c1c(S(=O)(=O)c2ccccc2)cn(Cc2cccc(F)c2)c2cc(N3CCOCC3)c(F)cc12 28.2 µM [inhibitor, single point]
CCOc1ccc(NC(=O)c2cnn3c2NC(c2cccc(OC)c2)=CC3c2ccccc2)cc1 (stereo not drawn) 25.1 µM [inhibitor, partial curve, poor fit]
Cc1ccc(C(=O)Nc2nnc(S(=O)(=O)N3c4ccccc4CC3C)s2)cc1 (stereo not drawn) 39.8 µM [inhibitor, single point]
COc1cc(-c2noc(CCC(=O)Nc3cc(C)ccc3C)n2)cc(OC)c1OC 28.2 µM [inhibitor, partial curve, poor fit]
Cc1ccc(-n2ncc(C(=O)NCCc3c[nH]c4ccccc34)c2C2CCN(C(=O)OC(C)(C)C)CC2)cc1C 39.8 µM [inhibitor, single point]
Cc1ccccc1C(=O)N(Cc1nc(-c2ccc(Cl)cc2)no1)C(C)C 39.8 µM [inhibitor, single point]
CC(NC(=O)CN(c1ccc(Cl)cc1Cl)S(=O)(=O)c1ccccc1)c1ccccc1 (stereo not drawn) 31.6 µM [inhibitor, partial curve, poor fit]
O=C(Cn1ccc2cc(S(=O)(=O)N3CCCCC3)ccc21)NCc1cccc(Cl)c1 31.6 µM [inhibitor, single point]
Cc1cc(S(=O)(=O)NCC(c2ccco2)S(=O)(=O)c2ccccc2)ccc1F (stereo not drawn) 39.8 µM [inhibitor, single point]
CCc1nnc(NC(=O)C(=O)c2cc(C)n(-c3ccccc3)c2C)s1 22.4 µM [inhibitor, partial curve, poor fit]
Cc1cc(C)cc(NC(=O)C2CCCN(C(=O)c3cnn(-c4ccccc4)c3-n3cccc3)C2)c1 (stereo not drawn) 35.5 µM [inhibitor, single point]
Cc1ccc(-c2nonc2NC(=O)c2ccc(F)cc2)cc1C 8.91 µM [inhibitor, partial curve, poor fit]
O=C(CCc1ccccc1)N(Cc1cccnc1)c1nc2c(F)cccc2s1 35.5 µM [inhibitor, partial curve]
CCCOc1ccc(-c2nc(SC)[nH]c(=O)c2C#N)cc1OC 25.1 µM [inhibitor, single point]
CC(=O)Nc1nonc1-c1nnc(SCC(=O)Nc2cc(C)cc(C)c2)n1-c1ccccc1 25.1 µM [inhibitor, single point]
Cc1ccc(S(=O)(=O)c2c(Nc3cc(F)ccc3F)sc(C(=O)c3ccc(F)cc3)c2N)cc1 25.1 µM [inhibitor, partial curve]
Cc1cc(C)c(NC(=O)Nc2ccc3snnc3c2)c(C)c1 39.8 µM [inhibitor, single point]
Cc1ccccc1OCc1nnc(SCc2cc(=O)c3cccc(F)c3[nH]2)n1C 25.1 µM [inhibitor, single point]
COc1ccc2nc(NC(=O)c3nc(S(=O)(=O)Cc4cccc(C)c4)ncc3Cl)sc2c1 39.8 µM [inhibitor, single point]
Cc1cc(NC(=O)C2CCN(S(=O)(=O)c3ccc4[nH]c(=O)oc4c3)CC2)ccc1Br 25.1 µM [inhibitor, partial curve, poor fit]
CCOC(=O)Cn1nc(C)c(NC(=O)COc2ccc(Cl)cc2C)c1C 11.2 µM [inhibitor, partial curve]
Cc1ccc(NC(=O)C(Cc2c[nH]c3ccccc23)NC(=O)OCC(C)C)cc1 (stereo not drawn) 28.2 µM [inhibitor, partial curve, poor fit]
Cc1ccc(Cl)cc1N1CCN(CCNC(=O)Nc2ccccc2Cl)CC1 28.2 µM [inhibitor, single point]
CC(C)(C)C(=O)NCCc1csc2nc(-c3ccc(F)cc3)nn12 31.6 µM [inhibitor, single point]
CSc1cccc(NC(=O)C2CCN(C(=O)c3cnn(-c4ccccc4)c3-n3cccc3)CC2)c1 35.5 µM [inhibitor, partial curve, poor fit]
Cc1ccc(Cl)cc1NC(=O)C(=O)NCC(c1cccnc1)N1CCc2ccccc21 (stereo not drawn) 25.1 µM [inhibitor, partial curve, poor fit]
Cc1ccc2c(c1)C(c1ccc(F)cc1)N(C(=O)c1ccc(OC(C)C)cc1)CC(=O)N2 (stereo not drawn) 39.8 µM [inhibitor, single point]
COc1ccc(C(=O)CSc2c(C(C)C)cnc3c2c(=O)n(C)c(=O)n3C)cc1 17.8 µM [inhibitor, single point]

Activity change, negative = inhibition, inactive:
COc1ccccc1NC(=O)CC1Sc2ccc(C(F)(F)F)cc2NC1=O (stereo not drawn) -3.64%
C#C[C@]1(O)CC[C@H]2[C@@H]3CCC4=CC(=O)CC[C@@H]4[C@H]3CC[C@@]21C 6.96%
CCOc1ccccc1NC(=O)Cn1c(=O)n(Cc2ccc(OC)cc2)c(=O)c2oc3ccccc3c21 -3.83%
CCCCn1c(NCc2ccc(OC)cc2O)nc2ccccc21 -15.3%
COC(=O)C1=C(C)NC(C)=C(C(=O)OC)C1c1ccccc1[N+](=O)[O-] 8.72%
Cc1cc(C(=O)N2CCN(c3cccc(Cl)c3)CC2)n(-c2ccccc2)n1 -17.4%
Nc1ccc(O)c(C(=O)O)c1 -2.92%
COc1cc2[nH]c(=O)n(CCCC(=O)N3CCN(c4cccc(C(F)(F)F)c4)CC3)c(=O)c2cc1OC 1.63%

— PubChem BioAssay AID1508623 (National Center for Advancing Translational Sciences (NCATS), 2021)
